In article PMC9911399, “Two distinct binding modes provide the RNA-binding protein RbFox with extraordinary sequence specificity”:
Where a chain is given by its changes, count along the chain named. Some of the results follow.

T1: RBFOX1 RRM (Homo sapiens, UniProt Q9NWB1 109-208)
T1 sequence: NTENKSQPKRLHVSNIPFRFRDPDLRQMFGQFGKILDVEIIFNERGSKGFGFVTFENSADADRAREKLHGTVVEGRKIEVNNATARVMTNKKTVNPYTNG

B1: GCCGCUG (DNA:RNA)
RNA: GGGAGACCGGAAUUCAGAUUGUCCGCCGCUGUUAAAUCCCGUCGUAGCCACCA
DNA 1: CAATCTGAATTCCGGTCTCCC
DNA 2: TGGTGGCTACGACGGGATT
B2: GGGCCCU (DNA:RNA)
RNA: B1 RNA with C26G, C27G, G28C, U30C, G31U
DNA 1: CAATCTGAATTCCGGTCTCCC
DNA 2: TGGTGGCTACGACGGGATT
B3: AGGGGGA (DNA:RNA)
RNA: B1 RNA with G25A, C26G, C27G, C29G, U30G, G31A
DNA 1: CAATCTGAATTCCGGTCTCCC
DNA 2: TGGTGGCTACGACGGGATT
B4: CGUUCUC (DNA:RNA)
RNA: B1 RNA with G25C, C26G, C27U, G28U, G31C
DNA 1: CAATCTGAATTCCGGTCTCCC
DNA 2: TGGTGGCTACGACGGGATT
B5: UGCGCAU (DNA:RNA)
RNA: B1 RNA with G25U, C26G, U30A, G31U
DNA 1: CAATCTGAATTCCGGTCTCCC
DNA 2: TGGTGGCTACGACGGGATT
B6: UCUGGGA (DNA:RNA)
RNA: B1 RNA with G25U, C27U, C29G, U30G, G31A
DNA 1: CAATCTGAATTCCGGTCTCCC
DNA 2: TGGTGGCTACGACGGGATT
B7: UUCUGCG (DNA:RNA)
RNA: B1 RNA with G25U, C26U, G28U, C29G, U30C
DNA 1: CAATCTGAATTCCGGTCTCCC
DNA 2: TGGTGGCTACGACGGGATT
B8: UUGGCGU (DNA:RNA)
RNA: B1 RNA with G25U, C26U, C27G, U30G, G31U
DNA 1: CAATCTGAATTCCGGTCTCCC
DNA 2: TGGTGGCTACGACGGGATT
B9: UAAUAAC (DNA:RNA)
RNA: GGGAGACCGGAAUUCAGAUUGUCCUAAUAACUUAAAUCCCGUCGUAGCCACCA
DNA 1: CAATCTGAATTCCGGTCTCCC
DNA 2: TGGTGGCTACGACGGGATT
B10: UGCGCUG (DNA:RNA)
RNA: B1 RNA with G25U, C26G
DNA 1: CAATCTGAATTCCGGTCTCCC
DNA 2: TGGTGGCTACGACGGGATT
B11: CAUCGCU (DNA:RNA)
RNA: B9 RNA with U25C, A27U, U28C, A29G, A30C, C31U
DNA 1: CAATCTGAATTCCGGTCTCCC
DNA 2: TGGTGGCTACGACGGGATT
B12: GAUGCCA (DNA:RNA)
RNA: B1 RNA with C26A, C27U, U30C, G31A
DNA 1: CAATCTGAATTCCGGTCTCCC
DNA 2: TGGTGGCTACGACGGGATT
B13: CGCAAUC (DNA:RNA)
RNA: B1 RNA with G25C, C26G, G28A, C29A, G31C
DNA 1: CAATCTGAATTCCGGTCTCCC
DNA 2: TGGTGGCTACGACGGGATT
B14: AAUGUAG (DNA:RNA)
RNA: B1 RNA with G25A, C26A, C27U, C29U, U30A
DNA 1: CAATCTGAATTCCGGTCTCCC
DNA 2: TGGTGGCTACGACGGGATT
B15: GUUGGGA (DNA:RNA)
RNA: B1 RNA with C26U, C27U, C29G, U30G, G31A
DNA 1: CAATCTGAATTCCGGTCTCCC
DNA 2: TGGTGGCTACGACGGGATT
B16: CCAAUAG (DNA:RNA)
RNA: B1 RNA with G25C, C27A, G28A, C29U, U30A
DNA 1: CAATCTGAATTCCGGTCTCCC
DNA 2: TGGTGGCTACGACGGGATT
B17: GAAAAUA (DNA:RNA)
RNA: B9 RNA with U25G, U28A, A30U, C31A
DNA 1: CAATCTGAATTCCGGTCTCCC
DNA 2: TGGTGGCTACGACGGGATT
B18: CCAGAUG (DNA:RNA)
RNA: B1 RNA with G25C, C27A, C29A
DNA 1: CAATCTGAATTCCGGTCTCCC
DNA 2: TGGTGGCTACGACGGGATT
B19: GGUGCAC (DNA:RNA)
RNA: B1 RNA with C26G, C27U, U30A, G31C
DNA 1: CAATCTGAATTCCGGTCTCCC
DNA 2: TGGTGGCTACGACGGGATT
B20: AAUUCCC (DNA:RNA)
RNA: B9 RNA with U25A, A27U, A29C, A30C
DNA 1: CAATCTGAATTCCGGTCTCCC
DNA 2: TGGTGGCTACGACGGGATT

These binders were tested against T1, RBFOX1 RRM (assay: EMSA; HiTS-Eq, 1 nM pool, 10 min; buffer printed only for the single-RNA assays: 10 mM Tris pH 7.5, 150 mM NaCl, 3.4 mM EDTA, 0.001% NP-40, 30 C). Settings: tags: His6 N-terminal (pET28a); label: 5' 32P.
Procedure, shortened: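 Purified RbFox RRM, wild type or mutant, was incubated for 10 min in 50 µL with 1 nM of a 5′-radiolabelled RNA pool carrying 7 randomized nucleotides, whose flanks were annealed to DNA oligonucleotides, over a series of increasing protein concentrations. Unbound RNA was resolved on 8% native PAGE, cut out, reverse-transcribed, barcoded by PCR and sequenced on an Illumina HiSeq 2500. Relative association constants were derived from changes in read counts for each RNA species versus the control reaction and normalised to the cognate motif.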

Binder	binding signal
B1	0.0218 KA relative to UGCAUGU
B2	0.00615 KA relative to UGCAUGU
B3	0.0149 KA relative to UGCAUGU
B4	0.0102 KA relative to UGCAUGU
B5	0.0197 KA relative to UGCAUGU
B6	0.00462 KA relative to UGCAUGU
B7	0.0227 KA relative to UGCAUGU
B8	0.026 KA relative to UGCAUGU
B9	0.004 KA relative to UGCAUGU
B10	0.031 KA relative to UGCAUGU
B11	0.00424 KA relative to UGCAUGU
B12	0.00795 KA relative to UGCAUGU
B13	0.0042 KA relative to UGCAUGU
B14	0.00936 KA relative to UGCAUGU
B15	0.0102 KA relative to UGCAUGU
B16	0.00034 KA relative to UGCAUGU
B17	0.00151 KA relative to UGCAUGU
B18	0.00679 KA relative to UGCAUGU
B19	0.0124 KA relative to UGCAUGU
B20	0.00155 KA relative to UGCAUGU
